{"source": "PubChem BioAssay AID686978", "about": "(National Center for Advancing Translational Sciences (NCATS), 2013)", "note": "Screen size: about 420,000 compounds; about 64,000 (15%) were called active. This list was built around the results that the source calls inconclusive (neither active nor inactive); the mix of calls is not that of the screen. Calls come from the whole dose curve; as a rule, active = well fitted inhibition curve with a large enough effect; inconclusive = small, poorly fitted or top-dose-only effect; inactive = flat fitted curve, though single readings scatter. Potencies of inconclusive entries are left out as doubtful fits. % is set by controls: 0 for no effect and ±100 for the full control effect; potency is the fitted concentration of half-maximal effect; tags give direction and shape of the fitted curve."}
{"test": "qHTS for Inhibitors of human tyrosyl-DNA phosphodiesterase 1 (TDP1): qHTS in cells in absence of CPT; note: nearly all actives have a fitted effect of over 55% in size", "settings": "DT40 Tdp1-/- hTDP1 cells, no CPT, ATP luminescence, 48 h; activity change, negative = growth inhibition: at 46.2 µM (top of the series)", "procedure,_shortened": "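Chicken DT40 Tdp1-/- cells complemented with human TDP1, screened without camptothecin (DMSO vehicle only), 400 cells/well. Compounds pin-transferred, cells incubated at 37 °C for at least 48 hr. Growth read as ATP-dependent luminescence (CellTiter-Glo, 30 min at RT).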"}
{"smiles": "COc1ccc(NC(=O)c2ccc3oc(=O)c(S(=O)(=O)c4ccc(F)cc4)cc3c2)c(OC)c1", "Potency": "inactive"}
{"smiles": "CCOC(=O)c1c[nH][nH]c1=O", "Potency": "inactive"}
{"smiles": "COc1ccc(CC(=O)Nc2ccc(-c3nc4ccccc4s3)c(C)c2)cc1", "Potency": "inconclusive [inhibitor, single point]"}
{"smiles": "O=C(c1cc2ccccc2oc1=O)N(Cc1ccco1)CC1CCCO1", "note": "(configuration not stated)", "Potency": "inactive"}
{"smiles": "CS(=O)(=O)N1CCN(c2ccccc2NC(=O)c2ccc([N+](=O)[O-])o2)CC1", "Potency": "active: 8.2 µM"}
{"smiles": "COc1ccc(N=Nc2c(C)[nH]c3ccccc23)cc1", "Potency": "inconclusive [inhibitor, single point]"}
{"smiles": "O=C(CNC(=O)C12CC3CC(CC(C3)C1)C2)N1CCCC(C(F)(F)F)C1", "note": "(configuration not stated)", "Potency": "inconclusive [inhibitor, single point]"}
{"smiles": "CCn1c(=O)cc(SCC(=O)NCc2ccc(C)o2)c2ccccc21", "Potency": "active: 13 µM"}
{"smiles": "Fc1ccc(NC(=S)NCc2ccc3c(c2)OCO3)cc1", "Potency": "inconclusive [inhibitor, single point]"}
{"smiles": "O=C(N/N=C1\\CCCc2ccccc21)c1cccc([N+](=O)[O-])c1", "Potency": "inactive"}
{"smiles": "CCn1c(SCc2nc(-c3ccc(Cl)cc3)no2)nnc1-c1ccco1", "Potency": "active: 20.6 µM"}
{"smiles": "O=c1oc2cc(Oc3ccc(C(F)(F)F)cc3[N+](=O)[O-])ccc2c2c1CCCC2", "Potency": "inconclusive [inhibitor, single point]"}
{"smiles": "COc1ccc(OCC(=O)NNc2nc3ccccc3s2)cc1", "Potency": "inactive"}
{"smiles": "CCNc1ncc2nc(-c3cccs3)c(=O)n(-c3ccc(OC)cc3)c2n1", "Potency": "inconclusive [inhibitor, partial curve]"}
{"smiles": "CCOC(=O)Cc1nnc(NC(=O)C(CC)Sc2nnc3c4ccccc4n(C)c3n2)s1", "note": "(configuration not stated)", "Potency": "inactive"}
{"smiles": "Cc1ccc(CN2CC(C(=O)N3CCN(S(=O)(=O)c4cccc(F)c4)CC3)CC2=O)cc1", "note": "(configuration not stated)", "Potency": "inactive"}
{"smiles": "COc1ccccc1OCCNC(=O)c1ccc2c(c1)OCCO2", "Potency": "inconclusive [inhibitor, single point]"}
{"smiles": "COc1cc2c(cc1N)-c1ccc(N)cc1C2=O", "Potency": "active: 16.4 µM"}
{"smiles": "Cc1ccccc1NC(=O)C1C2C=CC(C3CC23)C1C(=O)O", "note": "(configuration not stated)", "Potency": "inconclusive [inhibitor, partial curve]"}
{"smiles": "COCC(C)Nc1ncnc2c1cnn2-c1cccc(Cl)c1", "note": "(configuration not stated)", "activity change, negative = growth inhibition": "inconclusive: -33.8% [inhibitor]"}
{"smiles": "Cc1cc(C)cc(OCC(=O)N2N=C(C(F)(F)F)CC2(O)C(C)(C)C)c1", "note": "(configuration not stated)", "Potency": "inconclusive [inhibitor, single point]"}
{"smiles": "COc1ccc(-c2nnc(SCc3ccccc3)n2N)cc1", "activity change, negative = growth inhibition": "inconclusive: -27.3% [inhibitor]"}
{"smiles": "O=C(NCc1ccccc1)c1cc(C2COCCN2C(=O)OCCF)on1", "note": "(configuration not stated)", "Potency": "inactive"}
{"smiles": "COc1ccc(CN2C(=NC(=O)C3CCCO3)SC3CS(=O)(=O)CC32)cc1", "note": "(configuration not stated)", "Potency": "inactive"}
{"smiles": "CC(=O)N1CCN(S(=O)(=O)c2cccc(C(=O)Nc3nccs3)c2)CC1", "activity change, negative = growth inhibition": "inconclusive: -31.5% [inhibitor]"}
{"smiles": "COc1ccc(CCNC(=O)CCC(=O)N2CCOc3ccc(Cl)cc32)cc1OC", "Potency": "inconclusive [inhibitor, partial curve, poor fit]"}
{"smiles": "O=C1ON=C(c2ccc([N+](=O)[O-])cc2)/C1=C/c1ccccc1O", "Potency": "inconclusive [inhibitor, single point]"}
{"smiles": "CCc1ccc(CN(Cc2ccco2)C(=O)c2ccc(C)cc2)cc1", "Potency": "inconclusive [inhibitor, single point]"}
{"smiles": "O=C(/C=C/c1ccc([N+](=O)[O-])s1)N1CCN(c2ccccc2)CC1", "Potency": "active: 16.4 µM"}
{"smiles": "COc1ccc(S(=O)(=O)N2CCOC2CNC(=O)C(=O)NCc2ccc(F)cc2)cc1", "note": "(configuration not stated)", "Potency": "inconclusive [inhibitor, single point]"}
{"smiles": "Cc1ccc2c(NC(=S)NC(=O)c3ccccc3)cccc2n1", "Potency": "inconclusive [inhibitor, partial curve]"}
{"smiles": "Oc1ccc(CN2CCN(c3ccccc3)CC2)c2cccnc12", "Potency": "active: 3.26 µM"}
{"smiles": "Cn1cccc1Cc1nnc(SCC(=O)Nc2ccc(F)cc2)n1-c1ccc(F)cc1", "Potency": "inconclusive [inhibitor, partial curve]"}
{"smiles": "CC1CN(c2cc3c(cc2F)c(=O)c(C(=O)O)cn3-c2ccc(F)cc2F)CCN1", "note": "(configuration not stated)", "Potency": "inactive"}
{"smiles": "CSc1ccc(/C=C/c2nc3ccccc3n2S(=O)(=O)c2ccc(F)c(C)c2)cc1", "Potency": "active: 20.6 µM"}
{"smiles": "NC(=O)c1ccc(Cn2c(C(=O)c3ccc(Cl)cc3)c3ccccc3[n+]2[O-])cc1", "Potency": "inconclusive [inhibitor, single point]"}
{"smiles": "Cc1c(NC(=S)NCc2ccc(F)cc2)cccc1[N+](=O)[O-]", "Potency": "inconclusive [inhibitor, single point]"}
{"smiles": "O=C(NCc1ccc(F)cc1)Nc1cccc([N+](=O)[O-])c1", "Potency": "inconclusive [inhibitor, single point]"}
{"smiles": "CCn1cc(C(=O)N2CCCC(C(=O)c3cccc(C(F)(F)F)c3)C2)cn1", "note": "(configuration not stated)", "Potency": "inconclusive [inhibitor, single point]"}
{"smiles": "CCN(CC)c1ccc(CN(C(=O)c2cccs2)C2CCS(=O)(=O)C2)cc1", "note": "(configuration not stated)", "Potency": "inconclusive [inhibitor, partial curve, poor fit]"}
{"smiles": "O=C(Nc1ccccc1)N(Cc1cccs1)c1ccc(Cl)cc1", "Potency": "inconclusive [inhibitor, single point]"}
{"smiles": "CC(=O)N(Cc1cccnc1)c1nc2cc(C)cc(C)c2s1", "Potency": "inconclusive [inhibitor, single point]"}
{"smiles": "CCNc1nc(NC(C)C)nc(N(C#N)Cc2ccccc2)n1", "Potency": "inconclusive [inhibitor, single point]"}
{"smiles": "Cc1ccnc(NS(=O)(=O)c2cnc(Cl)c(Br)c2)c1", "Potency": "inactive"}
{"smiles": "CC(=O)Nc1ccccc1-c1nc2ccccc2n(C(C)C(=O)Nc2cccc(C)c2C)c1=O", "note": "(configuration not stated)", "Potency": "inconclusive [inhibitor, single point]"}
{"smiles": "CCOc1ccccc1NC(=O)CSc1n[nH]c(N)n1", "Potency": "inactive"}
{"smiles": "COc1cccc(Oc2coc3cc(OC(=O)N4CCOCC4)ccc3c2=O)c1", "Potency": "inconclusive [inhibitor, single point]"}
